# Data published in the supplement of paper PMC8728848.
# This is one part of the list.
# B1: Gal 2 (Canis lupus) (protein)
# chain: MSGKFEVMNMDMKLGGTLKIKGKIAGDADGFVINLGQGSDKLNLHFNPRFHESVIVCNSRNWGQEQRDKHMCFSPGSEVKFTVTFENDGFKVKLPDGHQLTFPNRLGHSHLSYLGVQGGLKVSSFKIE
# Assays:
# Test in all cases: glycan array binding signal (z-score within array); higher = stronger binding
# Settings in all cases: glycan notation: IUPAC condensed, linker removed
# [1] = molecular target: GlcNAc(a1-4)Gal(b1-4)GlcNAc(b1-3)Gal(b1-4)Glc
# In short: (§1)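 Columns mapping to the same glycan were averaged after glycan names were converted to IUPAC-condensed notation. The data come from 3228 arrays in the Consortium for Functional Glycomics database, limited to those with an available protein sequence. Binding is reported as a within-array Z-score averaged across arrays of one protein sequence and across linkers.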
# [2] = molecular target: GlcNAc(a1-4)Gal(b1-4)GlcNAc(b1-3)Gal(b1-4)GlcNAc
# In short: as §1
# [3] = molecular target: GlcNAc(a1-4)Gal(b1-4)GlcNAc(b1-3)Gal(b1-4)GlcNAc(b1-3)Gal(b1-4)GlcNAc
# In short: as §1
# [4] = molecular target: GlcNAc(a1-4)Gal(b1-4)GlcNAc(b1-3)Gal(b1-4)[Fuc(a1-3)]GlcNAc(b1-3)Gal(b1-4)[Fuc(a1-3)]GlcNAc
# In short: as §1
# [5] = molecular target: GlcNAc(a1-6)Gal(b1-4)GlcNAc
# In short: as §1
# [6] = molecular target: GlcNAc(b1-2)Gal(b1-3)GalNAc
# In short: as §1
# [7] = molecular target: GlcNAc(b1-2)Man(a1-3)[GlcNAc(b1-2)Man(a1-6)]Man(b1-4)GlcNAc(b1-4)GlcNAc
# In short: as §1
# [8] = molecular target: GlcNAc(b1-2)Man(a1-3)[GlcNAc(b1-2)Man(a1-6)]Man(b1-4)GlcNAc(b1-4)[Fuc(a1-6)]GlcNAc
# In short: as §1
# [9] = molecular target: GlcNAc(b1-2)Man(a1-3)[GlcNAc(b1-4)][GlcNAc(b1-2)Man(a1-6)]Man(b1-4)GlcNAc(b1-4)GlcNAc
# In short: as §1
# [10] = molecular target: GlcNAc(b1-2)[GlcNAc(b1-4)]Man(a1-3)[GlcNAc(b1-2)Man(a1-6)]Man(b1-4)GlcNAc(b1-4)GlcNAc
# In short: as §1
# [11] = molecular target: GlcNAc(b1-2)[GlcNAc(b1-4)]Man(a1-3)[GlcNAc(b1-4)][GlcNAc(b1-2)Man(a1-6)]Man(b1-4)GlcNAc(b1-4)GlcNAc
# In short: as §1
# [12] = molecular target: GlcNAc(b1-2)[GlcNAc(b1-4)]Man(a1-3)[GlcNAc(b1-4)][GlcNAc(b1-2)[GlcNAc(b1-6)]Man(a1-6)]Man(b1-4)GlcNAc(b1-4)GlcNAc
# In short: as §1
# [13] = molecular target: GlcNAc(b1-2)[GlcNAc(b1-6)]Man(a1-6)[GlcNAc(b1-2)Man(a1-3)]Man(b1-4)GlcNAc(b1-4)GlcNAc
# In short: as §1
# [14] = molecular target: GlcNAc(b1-2)[GlcNAc(b1-6)]Man(a1-6)[GlcNAc(b1-2)Man(a1-3)][GlcNAc(b1-4)]Man(b1-4)GlcNAc(b1-4)GlcNAc
# In short: as §1
# [15] = molecular target: GlcNAc(b1-3)Gal
# In short: as §1
# [16] = molecular target: GlcNAc(b1-3)Gal(b1-3)GalNAc
# In short: as §1
# [17] = molecular target: GlcNAc(b1-3)Gal(b1-4)Glc
# In short: as §1
# [18] = molecular target: GlcNAc(b1-3)Gal(b1-4)GlcNAc
# In short: as §1
# [19] = molecular target: GlcNAc(b1-3)Gal(b1-4)GlcNAc(b1-3)Gal(b1-4)GlcNAc
# In short: as §1
# [20] = molecular target: GlcNAc(b1-3)GalNAc
# In short: as §1
# [21] = molecular target: GlcNAc(b1-3)Man
# In short: as §1
# [22] = molecular target: GlcNAc(b1-3)[GlcNAc(b1-4)][GlcNAc(b1-6)]GlcNAc
# In short: as §1
# [23] = molecular target: GlcNAc(b1-3)[GlcNAc(b1-6)]Gal(b1-4)GlcNAc
# In short: as §1
# [24] = molecular target: GlcNAc(b1-3)[GlcNAc(b1-6)]GalNAc
# In short: as §1
# [25] = molecular target: GlcNAc(b1-4)Gal(b1-4)GlcNAc
# In short: as §1
# [26] = molecular target: GlcNAc(b1-4)GlcNAc
# In short: as §1
# [27] = molecular target: GlcNAc(b1-4)GlcNAc(b1-4)GlcNAc
# In short: as §1
# [28] = molecular target: GlcNAc(b1-4)GlcNAc(b1-4)GlcNAc(b1-4)GlcNAc(b1-4)GlcNAc
# In short: as §1
# [29] = molecular target: GlcNAc(b1-4)GlcNAc(b1-4)GlcNAc(b1-4)GlcNAc(b1-4)GlcNAc(b1-4)GlcNAc
# In short: as §1
# [30] = molecular target: GlcNAc(b1-4)[GlcNAc(b1-6)]GalNAc
# In short: as §1
# [31] = molecular target: GlcNAc(b1-6)Gal(b1-4)GlcNAc
# In short: as §1
# [32] = molecular target: GlcNAc(b1-6)GalNAc
# In short: as §1
# [33] = molecular target: GlcNAc3Prop(b1-4)GlcNAc
# In short: as §1
# [34] = molecular target: GlcNAc6S(b1-3)Gal(b1-4)GlcNAc
# In short: as §1
# [35] = molecular target: Kdn(a2-3)Gal(b1-3)GalNAc
# In short: as §1
# [36] = molecular target: Kdn(a2-3)Gal(b1-3)GlcNAc
# In short: as §1
# [37] = molecular target: Kdn(a2-3)Gal(b1-4)Glc
# In short: as §1
# [38] = molecular target: Kdn(a2-3)Gal(b1-4)GlcNAc
# In short: as §1
# [39] = molecular target: Kdn(a2-3)Gal(b1-4)[Fuc(a1-3)]GlcNAc
# In short: as §1
# [40] = molecular target: Kdn(a2-6)Gal(b1-4)GlcNAc
# In short: as §1
# [41] = molecular target: Man(a1-2)Man(a1-2)Man(a1-3)Man
# In short: as §1
# [42] = molecular target: Man(a1-2)Man(a1-2)Man(a1-6)[Man(a1-3)]Man
# In short: as §1
# [43] = molecular target: Man(a1-2)Man(a1-3)Man
# In short: as §1
# [44] = molecular target: Man(a1-2)Man(a1-3)[Man(a1-2)Man(a1-6)]Man
# In short: as §1
# [45] = molecular target: Man(a1-2)Man(a1-3)[Man(a1-2)Man(a1-6)]Man(a1-6)[Man(a1-2)Man(a1-2)Man(a1-3)]Man
# In short: as §1
binder,measurement,setting,value
B1,glycan array binding signal (z-score),[1],0.112
same,glycan array binding signal (z-score),[2],-0.169
same,glycan array binding signal (z-score),[3],-0.339
same,glycan array binding signal (z-score),[4],1.2
same,glycan array binding signal (z-score),[5],0.101
same,glycan array binding signal (z-score),[6],-0.002
same,glycan array binding signal (z-score),[7],-0.253
same,glycan array binding signal (z-score),[8],0.141
same,glycan array binding signal (z-score),[9],-0.36
same,glycan array binding signal (z-score),[10],0.058
same,glycan array binding signal (z-score),[11],-0.291
same,glycan array binding signal (z-score),[12],-0.369
same,glycan array binding signal (z-score),[13],-0.097
same,glycan array binding signal (z-score),[14],-0.227
same,glycan array binding signal (z-score),[15],-0.033
same,glycan array binding signal (z-score),[16],0.046
same,glycan array binding signal (z-score),[17],0.133
same,glycan array binding signal (z-score),[18],0.04
same,glycan array binding signal (z-score),[19],-0.183
same,glycan array binding signal (z-score),[20],-0.18
same,glycan array binding signal (z-score),[21],-0.104
same,glycan array binding signal (z-score),[22],-0.393
same,glycan array binding signal (z-score),[23],0.027
same,glycan array binding signal (z-score),[24],-0.1
same,glycan array binding signal (z-score),[25],-0.288
same,glycan array binding signal (z-score),[26],0.206
same,glycan array binding signal (z-score),[27],-0.331
same,glycan array binding signal (z-score),[28],-0.405
same,glycan array binding signal (z-score),[29],-0.021
same,glycan array binding signal (z-score),[30],-0.114
same,glycan array binding signal (z-score),[31],-0.268
same,glycan array binding signal (z-score),[32],0.074
same,glycan array binding signal (z-score),[33],-0.333
same,glycan array binding signal (z-score),[34],0.288
same,glycan array binding signal (z-score),[35],0.163
same,glycan array binding signal (z-score),[36],-0.388
same,glycan array binding signal (z-score),[37],0.09
same,glycan array binding signal (z-score),[38],-0.203
same,glycan array binding signal (z-score),[39],-0.172
same,glycan array binding signal (z-score),[40],-0.013
same,glycan array binding signal (z-score),[41],-0.019
same,glycan array binding signal (z-score),[42],-0.081
same,glycan array binding signal (z-score),[43],-0.115
same,glycan array binding signal (z-score),[44],-0.162
same,glycan array binding signal (z-score),[45],0.426
